The labels stand for the following.
B1: anti-GITR 51B VH4/VL3 humanized antibody (human IgG1, kappa) (antibody)
heavy: QVQLVQSGAEVKKPGASVKVSCKTTGYRFTGYWINWVRQPPGKGLEWIGEILPGSGATYYSENFKGKVTITADTSTDTAYMELSSLRSEDTAIYYCARKGGYYAMDYWGQGTLVTVSSASTKGPSVFPLAPSSKSTSGGTAALGCLVKDYFPEPVTVSWNSGALTSGVHTFPAVLQSSGLYSLSSVVTVPSSSLGTQTYICNVNHKPSNTKVDKRV[human IgG1 Fc not printed]
light: EIVLTQSPATLSLSPGERATLSCTASSSVSSSYFHWYQQKPGSAPKLWIYSTSNLASGVPDRFSGSGSGTDYTLTISSLQAEDVATYYCHLYHRSPRTFGGGTKVEIKRTVAAPSVFIFPPSDEQLKSGTASVVCLLNNFYPREAKVQWKVDNALQSGNSQESVTEQDSKDSTYSLSSTLTLSKADYEKHKVYACEVTHQGLSSPVTKSFNRGEC
B2: anti-GITR 51B VH3/VL3 humanized antibody (human IgG1, kappa) (antibody)
heavy: B1 heavy with N35E
light: B1 light
B3: anti-GITR 51B VH3/VL2 humanized antibody (human IgG1, kappa) (antibody)
heavy: B1 heavy with N35E
light: B1 light with E1Q, L21M
B4: anti-GITR 51B VH2/VL2 humanized antibody (human IgG1, kappa) (antibody)
heavy: B1 heavy with V20L, N35E, V68A, D77N, L83V
light: B1 light with E1Q, L21M
B5: anti-GITR 51B VH1/VL2 humanized antibody (human IgG1, kappa) (antibody)
heavy: B1 heavy with V11L, V20L, N35E, V68A, D77N, L83V, E89G, T91S, L113S
light: B1 light with E1Q, L21M
B6: anti-GITR 51B VH1/VL3 humanized antibody (human IgG1, kappa) (antibody)
heavy: B1 heavy with V11L, V20L, N35E, V68A, D77N, L83V, E89G, T91S, L113S
light: B1 light
B7: anti-GITR 51B VH5/VL3 humanized antibody (human IgG1, kappa) (antibody)
heavy: B1 heavy with N35D
light: B1 light
B8: anti-GITR 51B VH4/VL2 humanized antibody (human IgG1, kappa) (antibody)
heavy: B1 heavy
light: B1 light with E1Q, L21M
B9: anti-GITR 51B VH5/VL2 humanized antibody (human IgG1, kappa) (antibody)
heavy: B1 heavy with N35D
light: B1 light with E1Q, L21M
B10: anti-GITR 51B VH2/VL3 humanized antibody (human IgG1, kappa) (antibody)
heavy: B1 heavy with V20L, N35E, V68A, D77N, L83V
light: B1 light

Positions count from the first letter of the chain named.

One test addresses recombinant human GITR (Cat No. 13643-H08H, Lot No. LC12JA2509, Sino Biological) (human) (UniProt Q9Y5U5). In words: SPR Biacore 8K, multi-cycle kinetics, purified IgG captured on Protein A, GITR as analyte.
Broadly, the Kd is the free concentration of one partner at which half of the binding sites on the other are occupied at equilibrium, for simple one-to-one binding. What is called koff is a measure of how fast the partners let go of each other. The kon is a measure of how fast the partners come together. For the molecule B1, the dissociation constant Kd amounted to 0.81 nM, the Relative KD (fold vs VH0/VL0) is 1.42, the off-rate (koff) came out at 0.000507 s⁻¹ and the kon is 626000 M⁻¹ s⁻¹.

Regarding B2, the Kd came out at 0.643 nM, the Relative KD (fold vs VH0/VL0) is 1.13, the off-rate constant (koff) worked out at 0.000426 s⁻¹ and the kon was 663000 M⁻¹ s⁻¹.

The next test shares this target. In words: SPR Biacore 8K, single-cycle kinetics, IgG in supernatant captured on Protein A, GITR as analyte. Background: SPR reads the build-up and loss of mass on a sensor chip optically.
For the molecule B1, the Kd was 1.02 nM, the Relative KD (fold vs VH0/VL0) is 1.8, the koff is 0.000566 s⁻¹ and the kon is 554000 M⁻¹ s⁻¹.

As for B2, the Kd came to 0.791 nM, the Relative KD (fold vs VH0/VL0) was 1.4, the koff stood at 0.000504 s⁻¹ and the kon was 637000 M⁻¹ s⁻¹.

As for B3, the equilibrium dissociation constant (Kd) worked out at 0.737 nM, the Relative KD (fold vs VH0/VL0) turned out to be 1.3, the koff was 0.000491 s⁻¹ and the on-rate constant (kon) is 666000 M⁻¹ s⁻¹.

Turning to B4, the Kd is 1.09 nM, the Relative KD (fold vs VH0/VL0) turned out to be 1.9, the koff was found to be 0.000596 s⁻¹ and the kon was 548000 M⁻¹ s⁻¹.

For the molecule B5, the equilibrium dissociation constant (Kd) came out at 1.16 nM, the Relative KD (fold vs VH0/VL0) amounted to 2, the off-rate constant (koff) was determined as 0.000595 s⁻¹ and the kon amounted to 515000 M⁻¹ s⁻¹.

Turning to B6, the equilibrium dissociation constant (Kd) was found to be 1.04 nM, the Relative KD (fold vs VH0/VL0) was 1.8, the koff worked out at 0.000541 s⁻¹ and the kon came out at 521000 M⁻¹ s⁻¹.

In the case of B7, the Kd came out at 1.93 nM, the Relative KD (fold vs VH0/VL0) is 3.4, the off-rate (koff) was 0.00074 s⁻¹ and the association rate constant (kon) turned out to be 384000 M⁻¹ s⁻¹.

Take B8: the Kd came out at 1.05 nM, the Relative KD (fold vs VH0/VL0) stood at 1.9, the koff is 0.000561 s⁻¹ and the on-rate (kon) worked out at 535000 M⁻¹ s⁻¹.

Regarding B9, the Kd amounted to 2.33 nM, the Relative KD (fold vs VH0/VL0) was 4.1, the off-rate constant (koff) came to 0.000961 s⁻¹ and the on-rate constant (kon) was 412000 M⁻¹ s⁻¹.

As for B10, the Kd came out at 1.22 nM, the Relative KD (fold vs VH0/VL0) came to 2.2, the koff was 0.00063 s⁻¹ and the kon came to 515000 M⁻¹ s⁻¹.
